Source: patent US20020155518A1, “Method of detecting compounds that control fungal diseases via effects on sporulation” (priority 2000, published 2002)

Tested on: Aspergillus nidulans
Assay: Sporulation assay, paper disc diffusion on PDA seeded with spores
Format: cell-based, Aspergillus nidulans strain 003 (ATCC 36321)
Details: 20μg per disc, Yes/No; for Inactive: Inactive = discolored zone <10 mm including filter paper disc or completely absent; for Moderately active: Moderately active = discolored zone 10-14 mm in diameter including filter paper disc; for Active: Active = discolored zone ≧15 mm in diameter including filter paper disc

SMILES | Inactive | Moderately active | Active
C[C@@H]1[C@H](O)[C@@H](C)/C=C/C=C/C=C/C=C/C=C/C=C/C=C/[C@H](O[C@@H]2O[C@H](C)[C@@H](O)[C@H](N)[C@@H]2O)C[C@@H]2O[C@](O)(C[C@@H](O)C[C@@H](O)[C@H](O)CC[C@@H](O)C[C@@H](O)CC(=O)O[C@H]1C)C[C@H](O)[C@H]2C(=O)O [Amphotericin B] | Yes | No | –
CO/C=C(/C(=O)OC)c1ccccc1Oc1cc(Oc2ccccc2C#N)ncn1 [Azoxystrobin] | Yes | No | No
CCCCNC(=O)n1c(NC(=O)OC)nc2ccccc21 [Benomyl] | Yes | No | No
N#Cc1c(Cl)c(Cl)c(Cl)c(C#N)c1Cl [Chlorothalonil] | Yes | No | No
Nc1nc(=O)[nH]cc1F [Compound 5-F-Cytosine, 5-F-Cytosine] | Yes | No | No
CCN(CC)CCO[C@H]1CC[C@@]2(C)C(=CC[C@@H]3[C@@H]2CC[C@]2(C)C(=O)CC[C@@H]32)C1 [Compound U-18666] | Yes | No | No
C[C@@H]1C[C@@H]([C@H](O)CC2CC(=O)NC(=O)C2)C(=O)[C@@H](C)C1 [Cycloheximide] | Yes | No | No
CCOc1ccc(NC(=O)OC(C)C)cc1OCC [Diethofencarb] | Yes | No | No
OC(c1ccc(Cl)cc1)(c1cncnc1)c1ccccc1Cl (stereo not shown) [Fenarimol] | Yes | No | No
CC(Cc1ccc(C(C)(C)C)cc1)CN1CCCCC1 (stereo not shown) [Fenpropidin] | Yes | No | No
C=CCOC(Cn1ccnc1)c1ccc(Cl)cc1Cl (stereo not shown) [Imazalil] | Yes | No | No
CC(=O)N1CCN(c2ccc(OCC3COC(Cn4ccnc4)(c4ccc(Cl)cc4Cl)O3)cc2)CC1 (stereo not shown) [Ketoconazole] | Yes | No | –
COCC(=O)N(c1c(C)cccc1C)C(C)C(=O)OC (stereo not shown) [Metalaxyl] | Yes | No | No
CC1(C)CCC(Cc2ccc(Cl)cc2)C1(O)Cn1cncn1 (stereo not shown) [Metconazole] | Yes | No | No
NC(=O)OC[C@H](O)[C@@H](O)[C@H](N)C(=O)N[C@H](C(=O)O)[C@H]1O[C@@H](n2cc(C(=O)O)c(=O)[nH]c2=O)[C@H](O)[C@@H]1O [Polyoxin D] | Yes | No | No
Cc1cc(C)nc(Nc2ccccc2)n1 [Pyrimethanil] | Yes | No | No
Fc1ccc(Oc2ccnc3cc(Cl)cc(Cl)c23)cc1 [Quinoxifen] | Yes | No | No
Cc1cccc(N(C)C(=S)Oc2ccc3ccccc3c2)c1 [Tolnaftate] | Yes | No | No
CCCCCCCCCCCCCN1CC(C)OC(C)C1 (stereo not shown) [Tridemorph] | Yes | No | No
C=CC1(C)OC(=O)N(c2cc(Cl)cc(Cl)c2)C1=O (stereo not shown) [Vinclozolin] | Yes | No | No
